Results as given in US6699837.

Tests used:
[1] = molecular target: HGF receptor (c-met) on rat pheochromocytoma PC12 cells (rat) (UniProt P97523); test: ^125I-HGF saturation binding on undifferentiated PC12 cells, Scatchard analysis
[2] = molecular target: HGF receptor (c-met) on rat pheochromocytoma PC12 cells (rat) (UniProt P97523); test: ^125I-HGF saturation binding on PC12 cells differentiated for 7 days with 50 ng/ml NGF, Scatchard analysis

Substance: Human recombinant HGF (hepatocyte growth factor), radioiodinated (^125I-HGF) (a stretch of the chain, sequence not shown) (ligand; radioiodinated with ^125I by the chloramine-T method (labelled residues not stated); other documents disagree on this pair)
- B max (sites/cell) [1]: 185 sites/cell
- Kd [1]: 0.04 nM
- Kd [2]: 0.027 nM
- binding sites (sites/cell) [2]: 15 sites/cell
